# About 2,200 (0.56%) of roughly 390,000 compounds were called active. This list was built around the results that the source calls inconclusive (neither active nor inactive); the mix of calls is not that of the screen. Calls follow the shape of the dose curve; as a rule, active = well fitted inhibition curve with a large enough effect; inconclusive = small, poorly fitted or top-dose-only effect; inactive = no such curve, though single readings can be large or run the other way. Potencies beside an inconclusive call are fits to weak or partial responses and may not hold up.
# Molecular target: Chromobox protein homolog 1 (Homo sapiens) (UniProt P83916)
# Test: HTS for Inhibitors of HP1-beta Chromodomain Interactions with Methylated Histone Tails; also: nearly all actives have a fitted effect of over 70% in size
# Conditions: AlphaScreen HP1-beta / biotin-H3K9me3 peptide binding; series mostly up to 114 µM
# Text: As our understanding of epigenetics expands, it is becoming clear that players in this field are potential targets for drug development. This area of epigenetic therapy has established applications for the treatment of cancer and neurological diseases. We have been involved in this field for a number of years and have performed high-throughput screens to identify the first small molecule inhibitors of protein methyltransferases. These methyltransferases target multiple substrates, and thus regulate many arms of an epigenetic pathway. The methylation of different substrates often generates docking sites for effector proteins that harbor binding domains (chromo, tudor, PHD, MBT and ANK repeats). It has been proposed that the binding sites generated for different proteins by these post-translational modifcations mediate downstream effects on chromatin. Consistent with this theory, di- and tri-methylation of histone H3K9 facilitates the binding of heterochromatin protein HP1. The HP1 protein harbors a chromodomain that is responsible for the methyl-dependent interaction between HP1 and lysine 9 of histone H3. […] Low-affinity protein-protein interactions (Kd in the single- to double-digit micromolar range) such as those discussed here have been very difficult to assay by traditional techniques such as fluorescence polarization or fluorescence resonance energy transfer. […]
# Potency is read from the fitted curve at half-maximal effect; tags tell the direction and shape of the fitted curve.
# UniProt P83916, sequence (P83916 whole entry, looked up): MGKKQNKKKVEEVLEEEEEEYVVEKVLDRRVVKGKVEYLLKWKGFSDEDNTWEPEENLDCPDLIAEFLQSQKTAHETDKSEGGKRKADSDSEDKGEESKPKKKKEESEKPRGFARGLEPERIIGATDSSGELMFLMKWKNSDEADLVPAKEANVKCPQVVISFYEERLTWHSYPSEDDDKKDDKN
row,Compound,Potency
1,COc1cc(/C=C2\C(=N)N3N=C(S(C)(=O)=O)SC3=NC2=O)ccc1OCCOc1ccccc1C,"inconclusive: 70.8 µM [inhibitor, partial curve]"
